In publication PMC4336329 (PLoS ONE, 2015):
About 2,200 (0.71%) of roughly 310,000 compounds showed an effect of 50% or more. Effects have a minus sign here. The list shows a part of the results.

The molecules below were run against human ether-à-go-go-related gene (hERG) potassium channel (human, UniProt Q12809) (assay: primary screen, population patch clamp on CHO cells stably expressing hERG).
human ether-à-go-go-related gene (hERG) potassium channel, sequence (Q12809 whole entry, looked up): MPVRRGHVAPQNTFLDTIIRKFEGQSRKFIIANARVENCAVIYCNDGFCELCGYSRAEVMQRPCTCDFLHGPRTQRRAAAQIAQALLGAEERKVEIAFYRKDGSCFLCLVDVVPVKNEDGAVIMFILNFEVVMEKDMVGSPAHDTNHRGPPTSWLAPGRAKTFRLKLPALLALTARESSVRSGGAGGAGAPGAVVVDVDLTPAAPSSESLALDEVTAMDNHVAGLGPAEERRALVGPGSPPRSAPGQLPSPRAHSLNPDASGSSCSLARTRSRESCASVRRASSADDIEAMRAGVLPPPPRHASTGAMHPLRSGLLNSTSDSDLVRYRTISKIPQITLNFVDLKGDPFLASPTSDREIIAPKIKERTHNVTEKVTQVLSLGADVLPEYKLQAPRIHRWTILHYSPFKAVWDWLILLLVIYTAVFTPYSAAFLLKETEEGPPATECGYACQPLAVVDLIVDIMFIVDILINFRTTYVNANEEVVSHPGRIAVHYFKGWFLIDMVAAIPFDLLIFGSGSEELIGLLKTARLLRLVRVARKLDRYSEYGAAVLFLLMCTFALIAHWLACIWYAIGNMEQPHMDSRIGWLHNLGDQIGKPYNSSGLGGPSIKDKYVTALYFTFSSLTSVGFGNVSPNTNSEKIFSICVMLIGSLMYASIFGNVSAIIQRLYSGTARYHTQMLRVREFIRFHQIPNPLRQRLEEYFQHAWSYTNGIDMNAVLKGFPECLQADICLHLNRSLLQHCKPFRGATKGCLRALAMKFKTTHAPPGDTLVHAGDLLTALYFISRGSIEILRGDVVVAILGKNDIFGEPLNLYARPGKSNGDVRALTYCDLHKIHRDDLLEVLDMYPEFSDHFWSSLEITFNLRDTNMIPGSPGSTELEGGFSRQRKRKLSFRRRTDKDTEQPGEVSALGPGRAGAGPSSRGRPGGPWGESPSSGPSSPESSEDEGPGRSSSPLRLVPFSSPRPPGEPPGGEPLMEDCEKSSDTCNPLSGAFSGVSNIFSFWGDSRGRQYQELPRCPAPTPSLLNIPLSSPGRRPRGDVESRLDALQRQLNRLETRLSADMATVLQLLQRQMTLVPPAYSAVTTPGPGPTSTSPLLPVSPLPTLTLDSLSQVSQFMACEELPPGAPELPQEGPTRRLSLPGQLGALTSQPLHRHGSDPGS

| Structure (SMILES) | hERG current change (%, negative = inhibition) at 1uM [%] |
| --- | --- |
| CCOc1cc(C(=O)NCc2ccncc2)cc(OCC)c1OCC | 2.99 |
| CC1(C)CC(=O)C2=C(C1)Oc1ncn(CCO)c(=N)c1C2c1ccccc1 (stereo not drawn) | -14.9 |
| COc1ccc(CC2(CO)CCN(S(=O)(=O)N(C)C)CC2)cc1 | 14.7 |
| COc1ccc(-c2nc(O)c3cnccn23)cc1 | 10.4 |
| O=C(Nc1ccsc1C(=O)O)c1ccccc1 | 18.7 |
| CCc1ccc(CNC(=O)CCC(=O)n2ncc3cc(C)ccc32)cc1 | 30.9 |
| Cc1ccc(N=C2NC(=O)/C(=C/c3cccnc3)S2)cc1C | 13.7 |
| CCN(CC)CCN(C(=O)c1ccc(S(=O)(=O)N(C)C2CCCCC2)cc1)c1nc2ccc(OC)cc2s1.Cl | 9.61 |
| CCc1ccccc1N(CC(=O)NC1CCCC1)C(=O)CNC(=O)c1cccs1 | 7.96 |
| CCOC(=O)C1CCCN(c2c(NCc3ccco3)c(=O)c2=O)C1 (stereo not drawn) | 4.76 |
| COc1ccc(NC(=O)CSC(C)c2nc3ccccc3c(=O)[nH]2)cc1 (stereo not drawn) | 11.2 |
| CCOc1ccc(/C=N/NC(=S)Nc2c(C)cccc2C)cc1 | 5.7 |
| O=C(COC(=O)CSCC(=O)N1CCCCC1)Nc1ccc(Cl)cc1 | 9.28 |
| Brc1ccccc1-c1nnc2sc(-c3ccc4c(c3)OCCO4)nn12 | 2.14 |
| COc1ccc(Cl)cc1N(CC(=O)NCC(C)C)S(=O)(=O)c1ccc(C)c([N+](=O)[O-])c1 | 7.33 |
| Cc1cccc(OC(C)C(=O)NC2CCS(=O)(=O)C2)c1C (stereo not drawn) | 2.25 |
| CCc1noc(C)c1C(=O)Nc1cccc2ncccc12 | 17.9 |
| Cn1ncc2c(Nc3ccc(-c4ccccc4)cc3)ncnc21 | 6.23 |
| CCOC(=O)c1cnc(SCc2ccccc2)nc1N | 2.64 |
| COc1ccccc1C(=O)Nc1ccc(S(=O)(=O)N2CCCCC2)cc1 | -3.45 |
| O=S(=O)(Nc1ccc(F)cc1)c1ccc(NC(=S)Nc2ccccc2)cc1 | 2.95 |
| CCOC(=O)c1cncc(NC(=O)c2ccccc2)c1 | 8.36 |

| Structure (SMILES) | hERG current change (%, negative = inhibition) at 1uM [%] |
| --- | --- |
| Cn1nc(C(F)(F)F)c(C(=O)Nc2cccc(C(F)(F)F)c2)c1SCc1ccc(Cl)cc1 | -1.14 |
| COc1ccc(OC)c(Nc2nc3nonc3nc2N2CCCCC2)c1 | 12.9 |
| COC(=O)c1ccc(CN2CCC(n3nccc3NC(=O)C3CC3)CC2)cc1 | -6.68 |
| CCN(CC)C(=O)/C(=C\c1ccc(Br)cc1)NC(=O)c1ccccc1OC | 3.5 |
| CCOC(=O)c1c(C)[nH]c(C)c1C(=O)CSc1ncccn1 | -0.18 |
| CCOc1ccccc1CNC(=O)c1ccc(NC(=O)C2=C(C)OCCS2)cc1 | 20.1 |
| CCNC(=O)Cc1ccc(S(=O)(=O)N2CCOCC2)s1 | 8.11 |
| COc1ccccc1NS(=O)(=O)c1cc(NC(=S)NCC2CCCO2)ccc1C (stereo not drawn) | 23.2 |
| Cc1ccccc1OCC(=O)OCC(=O)c1c[nH]c2ccccc12 | 11.2 |
| COc1ccc2cc3cc(C(=O)NCc4cccnc4)oc3nc2c1 | -1.47 |
| CC(C)Oc1ccc(C(=O)NC2(C(F)(F)F)NC(=O)N(CCCc3ccccc3)C2=O)cc1 (stereo not drawn) | -3.59 |
| CN(CC(=O)NC(c1ccccc1)c1ccccc1)Cc1nc2ccccc2c(=O)[nH]1 | -9.92 |
| O=C(Nc1ccccc1OC(F)F)c1ccc(S(=O)(=O)N2CCOCC2)cc1 | 12.5 |
| COc1ccc(-c2ccc(NS(=O)(=O)c3cccc([N+](=O)[O-])c3)cc2)nn1 | 12.5 |
| O=C(COc1ccccc1)OCc1cc2ccccc2[nH]c1=O | 6.17 |
| COc1cc(C(C(=O)NC2CCCCC2)N(C(=O)Cc2c[nH]c3ccccc23)c2ccc(C)cc2)cc(OC)c1OC (stereo not drawn) | 9.08 |
| OCc1nc2ccccc2n1CCc1ccccc1 | 13.9 |
| CCc1cccc(NC(=O)CCNS(=O)(=O)c2ccc3[nH]c(=O)oc3c2)c1 | 14.7 |
| Cc1cccc(CNc2ncnc3ccc(-c4ccoc4)cc23)c1 | 17 |
| CCCn1nnc(NC(=O)c2cccc(OCC)c2)n1 | -1.29 |
| COc1ccc(-c2oc3ncnc(N)c3c2-c2ccccc2)cc1 | 11.1 |
| COc1ccc(C(=O)NC(=S)Nc2ccc3[nH]c(=O)[nH]c3c2)cc1 | 13 |

| Structure (SMILES) | hERG current change (%, negative = inhibition) at 1uM [%] |
| --- | --- |
| NS(=O)(=O)c1ccc(CCNC2CC(=O)N(CCc3ccccc3)C2=O)cc1 (stereo not drawn) | 4.99 |
| CCCN(CC(=O)Nc1ccccc1C)C(=O)c1ccc(C)c(S(=O)(=O)N2CCCCC2)c1 | 12.6 |
| CCOc1ccc(-n2ccc(=O)c(C(=O)O)n2)cc1 | 20.2 |
| c1ccc(Cn2ncc3c(N4CCOCC4)ncnc32)cc1 | -2.09 |
| N#Cc1ccc(C23CC4(C2)[C@H](CN(P(=O)(c2ccccc2)c2ccccc2)[C@@H]4c2ccccc2)C3c2ccc(Cl)nc2)cc1 (stereo partly drawn) | 8.64 |
| CCOc1ccc(C(=O)Nc2cccc(-c3ccc(N4CCOCC4)nn3)c2)cc1OCC | 15.3 |
| CCNC(=O)CN(c1ccc(OC)c(OC)c1)S(=O)(=O)c1ccccc1 | 5.2 |
| O=S(=O)(NCCNc1nccc(C(F)(F)F)n1)c1ccccc1 | 9.51 |
| COc1ccc(N2CCN(C(=O)c3ccccc3NC(=O)c3ccccc3)CC2)cc1 | 3 |
| O=C(CSc1nc(-c2ccccc2)c(-c2ccccc2)o1)Nc1nncs1 | 10.3 |
| O=P1(NCCCn2cc[n+](Cc3nc4ccccc4[nH]3)c2)C=C(c2ccccc2)OC(c2ccccc2)=C1.[Cl-] | -17.6 |
| COc1cccc(OCC(=O)N(Cc2nc(-c3ccc(Cl)cc3)no2)C(C)C)c1 | 5.01 |
| CCCCC(=O)Nc1ccc(C(=O)NNC(=O)c2ccco2)cc1 | 14.5 |
| c1ccc(-c2nnc3sc(-c4cc5ccccc5o4)nn23)cc1 | 14.4 |
| CN(C)S(=O)(=O)c1ccc(Cl)c(NC(=O)COC(=O)CN2C(=O)NC(C)(C)C2=O)c1 | 3.03 |
| O=C(NCc1ccccc1C(F)(F)F)C1CC(c2cc(C(F)(F)F)cc(C(F)(F)F)c2)=NO1 (stereo not drawn) | 9.2 |
| O=C1C(=O)N(CCN2CCOCC2)C(c2ccccn2)/C1=C(/O)c1ccccc1 (stereo not drawn) | 5.14 |
| CCCOc1cc(N)ccc1C(=O)OCCN(CC)CC.Cl | -6.98 |
| Cc1ccnc(NC(=O)c2cccc(NC(=O)CC3SC(N4CCCCC4)=NC3=O)c2)c1 (stereo not drawn) | -0.0957 |
| CCOC(=O)C(NC(=O)CC)(Nc1cc(C)on1)C(F)(F)F (stereo not drawn) | -2.69 |
| CCCNC(=O)c1nc(C)n(-c2cc(Cl)ccc2Cl)n1 | 18.1 |
| CC1CCC(NC(=O)COC(=O)c2cccnc2Cl)CC1 (stereo not drawn) | -5.81 |

| Structure (SMILES) | hERG current change (%, negative = inhibition) at 1uM [%] |
| --- | --- |
| NC(=O)COc1ccc(/C=N/NS(=O)(=O)c2ccccc2)cc1 | 10.3 |
| COCC1CCCCN1Cc1cn(-c2ccccc2)nc1-c1ccc2c(c1)OCO2 (stereo not drawn) | 6.58 |
| CCNc1ccc(C(=O)OCC(=O)N2CCCC2)cc1[N+](=O)[O-] | 5.74 |
| O=S(=O)(Cc1ccc(Cl)cc1)NCC1CCCO1 (stereo not drawn) | 2.48 |
| NS(=O)(=O)c1ccc(NS(=O)(=O)c2cccs2)cc1 | 20.3 |
| Fc1ccc2[nH]c3c(N4CCN(C5CCCCC5)CC4)ncnc3c2c1 | -3.08 |
| CC(=O)N1CCN(S(=O)(=O)c2cccc(C(=O)Nc3ccc(F)c(F)c3)c2)CC1 | -38.1 |
| CCN1CCN(C(=O)c2ccc(C(F)(F)F)cc2)CC1 | 12.8 |
| CCOc1ccc(CNC(=O)c2ccc(Sc3ccc(Cl)cc3)c(NC(C)=O)c2)cc1 | 12.8 |
| O=C(O)C(=O)O.c1ccc(CCNC2CCCCCC2)cc1 | 1.13 |
| O=C(NC(=S)Nc1ccccc1C(F)(F)F)c1ccccc1F | 21.4 |
| CC(=O)Nc1ccc(C(=O)OCc2ccc(F)cc2)cc1 | 8.07 |
| Nn1c(SCC(=O)NCCc2ccc(F)cc2)nnc1C1CCCCC1 | 8.13 |
| O=C(NNC(=O)c1cc(-c2ccncc2)nc2ccccc12)c1cccc(Cl)c1 | 1.53 |
| Clc1ccc(N=NN2CCOCC2)cc1 | 11.4 |
| CCOC(=O)C1CCN(c2c(NCCCN(C)C3CCCCC3)c(=O)c2=O)CC1 | 5.2 |
| COc1ccc(C)cc1S(=O)(=O)N1CCCC(C(=O)N2CCOCC2)C1 (stereo not drawn) | 28.6 |
| O=S(=O)(c1ccccc1)c1nc(-c2ccco2)oc1NCc1ccccc1 | 1.07 |
| CC(=O)N(CCCc1ccc(C(C)(C)C)cc1)CCCN(C)C | -9 |
| COc1ccc2cc(S(=O)(=O)n3cnc(C)c3)ccc2c1 | 17.1 |
| COCCn1cnnc1SCC(=O)Nc1cc(OC)c([N+](=O)[O-])cc1C | 7.09 |
